Experimental data as given in PubChem BioAssay AID2451 (National Center for Advancing Translational Sciences (NCATS), 2010).
The campaign covered roughly 290,000 compounds. About 2,100 (0.72%) were called active. The inconclusive results got no clear call from the source; some entries with a clear call stand among them for comparison. The call rests on the fitted dose curve; in most records, active means well fitted inhibition curve with a large enough effect; inconclusive means small, poorly fitted or top-dose-only effect, or effect the other way; inactive means flat fitted curve, though single readings scatter. Potencies beside an inconclusive call are fits to weak or partial responses and may not hold up.

biological target: Fructose-bisphosphate aldolase (Giardia intestinalis (strain ATCC 50803 / WB clone C6)) (UniProt A8B2U2); experiment: qHTS Assay for Inhibitors of Fructose-1,6-bisphosphate Aldolase from Giardia Lamblia; conditions: purified Giardia FBPA; series mostly up to 59.6 µM; further: nearly all actives have a fitted effect of over 55% in size
In short: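 40 nM FBPA preincubated 10 min at RT with compound (up to 57.5 uM final), then substrate plus GAPDH/TPI/NAD/arsenate coupling and diaphorase/resazurin added. Fluorescence read after 20 min at RT, 525/598 nm.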
Potency means the concentration at half of the fitted maximal effect; tags describe the fitted curve by direction and shape.

Sequence of UniProt A8B2U2 (A8B2U2 whole entry, looked up): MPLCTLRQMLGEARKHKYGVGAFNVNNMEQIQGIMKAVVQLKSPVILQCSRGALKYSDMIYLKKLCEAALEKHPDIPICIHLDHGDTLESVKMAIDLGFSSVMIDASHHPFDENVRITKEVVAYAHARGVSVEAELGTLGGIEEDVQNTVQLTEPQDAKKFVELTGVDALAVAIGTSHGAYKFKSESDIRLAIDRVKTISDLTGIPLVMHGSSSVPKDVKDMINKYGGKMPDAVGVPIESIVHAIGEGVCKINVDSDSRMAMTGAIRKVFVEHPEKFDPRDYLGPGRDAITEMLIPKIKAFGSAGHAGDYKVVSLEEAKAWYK

Compound | Potency
CSc1nc2cc(Oc3cccc(Cl)c3Cl)c(Cl)cc2[nH]1 | inconclusive: 15.8 µM [inhibitor, single point]
COc1ccc(-c2nc(NCCCN(C)C)c3ccccc3n2)cc1 | inconclusive: 25.1 µM [inhibitor, partial curve]
Cc1ccc(-n2nc(C)c3c2NC(=O)CSC3c2ccc3c(c2)OCO3)cc1 (stereo not given) | inconclusive: 17.7 µM [inhibitor, partial curve]
Oc1c(C(c2cccs2)N2CCN(c3ccccc3)CC2)ccc2cccnc12 (stereo not given) | inconclusive: 31.6 µM [activator, partial curve]
Cc1cccc(NC(=O)[C@H](Cc2c[nH]c3ccccc23)NC(=O)[C@@H]2Cc3ccccc3CN2)c1 | inconclusive: 7.94 µM [inhibitor, partial curve]
O=C1/C(=C\c2cc(Br)cc(Br)c2O)SC(=S)N1Cc1ccccc1 | inactive
CN(C)S(=O)(=O)c1cccc(NC(=O)COC(=O)CNC(=O)c2cccc([N+](=O)[O-])c2)c1 | inactive
CCOc1ccccc1C(=O)NC(C(=O)OCC(=O)Nc1nnc(-c2ccccc2)o1)C(C)C (stereo not given) | inconclusive: 17.7 µM [activator, partial curve]
O=C1CCCC/C1=C/Nc1ccc2c(c1)OCO2 | inconclusive: 31.6 µM [inhibitor, single point]
CCOc1cccc(C(=O)NC(=S)Nc2cccnc2)c1 | inconclusive: 7.92 µM [inhibitor, partial curve]
COc1ccc(/C=N/NC(=O)CN2CCCCCCC2)c(C)c1C | inconclusive: 14.1 µM [inhibitor, partial curve]
O=C(COC(=O)c1ccccn1)Nc1ccccc1OC(F)F | inconclusive: 19.9 µM [inhibitor, partial curve]
COC1=C(N)C(=O)c2nc(-c3nc(C(=O)O)c(C)c(-c4ccc(OC)c(OC)c4O)c3N)ccc2C1=O | inconclusive: 0.316 µM [inhibitor, full curve]
COc1cc(OC)c(C2CC(=O)N3CN(C)CSC3=C2C#N)cc1OC (stereo not given) | active: 0.561 µM
COc1ccc(CN2CCN(c3ccccn3)CC2)c(OC)c1C | inconclusive: 19.9 µM [inhibitor, partial curve]
CC1(C)CC2CC(C)(CN2CC(O)COc2ccccc2)C1 (stereo not given) | inconclusive: 19.9 µM [inhibitor, partial curve]
CN1CCCN(C2C3CC4CC(C3)CC2C4)CC1 (stereo not given) | inconclusive: 17.7 µM [inhibitor, partial curve]
COc1ccc(CC2=CC(=O)c3ccccc3C2=O)cc1 | inconclusive: 3.16 µM [inhibitor, full curve]
O=C(O)c1ccc2cccc(O)c2n1 | active: 2.23 µM
COc1ccc(Nc2cc(Nc3ccc(OC)cc3)ncn2)cc1 | inactive
CC(C(=O)NCCCn1ccnc1)(c1ccccc1)c1ccccc1 | inconclusive: 28.2 µM [inhibitor, single point]
CCOC(=O)C1CCCN(C(=O)CSc2ccccc2)C1 (stereo not given) | inactive
Cc1ccc(NC(=O)CNCCCN2CCOCC2)cc1S(=O)(=O)N1CCCCC1 | inconclusive: 6.29 µM [inhibitor, partial curve]
OCc1nc2nc(Cl)c(Cl)nc2[nH]1 | inconclusive: 10 µM [inhibitor, partial curve]

Compound | Potency
CC(C)OCCCNC(=S)Nc1ccc(S(N)(=O)=O)cc1 | active: 14.1 µM
CC(CCN1CCN(c2ccc(F)cc2)CC1)c1ccccc1 (stereo not given) | inconclusive: 25.1 µM [inhibitor, partial curve]
O=C(Nc1ccccc1)c1ccc(Nc2c([N+](=O)[O-])cc([N+](=O)[O-])c3ccccc23)cc1 | inactive
Cc1ccc(OCCN2CCCC2)cc1 | inconclusive: 20 µM [inhibitor, partial curve]
COc1cccc(NC(=O)C(NCCC(C)C)c2ccccc2)c1 (stereo not given) | inactive
Cc1c(/C=C/C(=O)c2ccc(C(C)C)cc2)cnn1C | inactive
CC(=O)C1=C(C)Nc2ncnn2C1c1ccccc1Cl (stereo not given) | inactive
Cc1ccc(NC(=O)c2ccc(Nc3c([N+](=O)[O-])cc([N+](=O)[O-])cc3[N+](=O)[O-])cc2)cc1 | inconclusive: 7.92 µM [inhibitor, partial curve]
CN(C)C(CNC(C(=O)Nc1ccc([N+](=O)[O-])cc1Br)c1ccccc1)c1ccccc1 (stereo not given) | active: 19.9 µM
O=C(Nc1cc(C(=O)Nc2ccc(S(=O)(=O)O)cc2S(=O)(=O)O)cc(C(=O)Nc2ccc(S(=O)(=O)O)cc2S(=O)(=O)O)c1)Nc1cc(C(=O)Nc2ccc(S(=O)(=O)O)cc2S(=O)(=O)O)cc(C(=O)Nc2ccc(S(=O)(=O)O)cc2S(=O)(=O)O)c1 | inconclusive: 25.1 µM [activator, partial curve]
Cc1ccc(S(=O)(=O)c2ncccc2N)cc1 | inactive
Cc1cccc(C(=O)NC(=S)N2CCN(C)CC2)c1 | inconclusive: 17.7 µM [inhibitor, single point]
COc1ccc(NCc2nnc(SCC(=O)c3ccc(OC)cc3)n2C)cc1 | inconclusive: 1.41 µM [inhibitor, partial curve]
COc1cccc(C(=O)NC(=S)Nc2ccc([N+](=O)[O-])cc2C)c1 | inconclusive: 15.8 µM [inhibitor, partial curve]
Cc1ccc2ncccc2c1NC(=S)NC(=O)c1ccccc1 | inconclusive: 17.7 µM [inhibitor, single point]
COc1ccc(C(=O)c2coc3c2C(=O)C(=O)c2ccccc2-3)cc1 | active: 7.06 µM
Cc1cc(/C=C2\Cc3ccccc3C2=O)c(C)n1-c1ccccc1 | inconclusive: 19.9 µM [inhibitor, single point]
CC(C)=CCCC(C)CN(C)CCc1ccccn1 (stereo not given) | inconclusive: 14.1 µM [inhibitor, partial curve]
CN1CCN(C(=S)NC(=O)c2ccccc2Br)CC1 | inconclusive: 10 µM [inhibitor, partial curve]
Oc1ccc(/C=N/Nc2ncnc3c2ncn3Cc2ccccc2)cc1O | inconclusive: 15.8 µM [inhibitor, single point]
Fc1cccc(Cl)c1CNc1ccc(N2CCCC2)cc1 | inconclusive: 5 µM [inhibitor, partial curve]
O=C(NC(=S)Nn1cnnc1)c1ccc(F)cc1Cl | active: 14.1 µM
CSc1ccc(S(=O)(=O)N2CCC(C(=O)Nc3ccc(C(N)=O)cc3)CC2)cc1 | inactive
CC(=O)Nc1ccccc1NC(=O)C/C(C)=N/NC(=O)c1cccnc1 | inactive

Compound | Potency
Cc1cc(C)c(NC(=O)CSc2nc3ncc(Br)cc3[nH]2)c(Cl)c1 | inconclusive: 25.1 µM [inhibitor, partial curve]
c1ccc(Cc2noc(CN3CCCN(C4Cc5ccccc5C4)CC3)n2)cc1 | inactive
CC1(C)CC(=O)C2=C(C1)NC1=C(C(=O)c3ccccc31)C2c1cc([N+](=O)[O-])ccc1O (stereo not given) | inactive
Cc1ccc(N=Nc2ccc(N)cc2C)c(S(N)(=O)=O)c1 | inconclusive: 17.7 µM [inhibitor, partial curve]
O=C(NCCN1CCOCC1)c1sc2cc(Cl)ccc2c1Cl | inactive
COc1ccc2c(/C=C/c3cc[n+](C)cc3)c[nH]c2c1 | inconclusive: 12.6 µM [inhibitor, partial curve]
CCOc1ccc(C(Nc2cccnc2)c2cc(Cl)c3cccnc3c2O)cc1 (stereo not given) | inconclusive: 31.5 µM [inhibitor, single point]
CCOC(=O)c1ccc(CS(=O)c2ccc(Cl)cc2)o1 (stereo not given) | inconclusive: 22.3 µM [inhibitor, single point]
Oc1ccc2ccccc2c1C=Nc1ccccc1-c1nc2ccccc2[nH]1 | inconclusive: 15.8 µM [inhibitor, single point]
O=C(Oc1cccc2cccnc12)c1cccc([N+](=O)[O-])c1 | inactive
O=C(NCCn1cc(SCc2ccccc2F)c2ccccc21)c1c(F)cccc1F | inactive
O=[N+]([O-])c1cccc(-c2ccc(C(=S)N3CCOCC3)o2)c1 | inconclusive: 19.9 µM [inhibitor, partial curve]
CCc1cc2c(SCC(=O)c3cccs3)ncnc2s1 | inactive
CCCCn1c(N)c(N(CC)C(=O)c2cc(OC)cc(OC)c2)c(=O)[nH]c1=O | inactive
NC(=O)C1=C[C@@H](c2ccc(Br)cc2)C[C@@H](OCCCCO)O1 | inconclusive: 15.8 µM [inhibitor, partial curve]
CCC(C=C[C@@H]1OC(=O)C=C[C@H]1C)=C[C@H](C)CC=CC(C)=C[C@@H](C)C(=O)[C@@H](C)[C@H](O)[C@@H](C)CC(C)=CC(=O)O | inconclusive: 1.77 µM [inhibitor, single point]
O=S(=O)(NCCOc1cccc2cccnc12)c1ccc(F)cc1 | inconclusive: 44.6 µM [inhibitor, single point]
CCN1C(=O)/C(=C2\SC(=S)N(NC(=O)c3cccnc3)C2=O)c2ccccc21 | inconclusive: 22.4 µM [inhibitor, single point]
N#C/C(C(=O)c1ccccc1)=C1/SC=C(N)N1c1ccccc1 | inconclusive: 14.1 µM [inhibitor, partial curve]
C/C(CC(=O)Nc1ccc(N(C)C)cc1)=N\NC(=O)Cc1csc(N)n1 | inconclusive: 19.9 µM [inhibitor, single point]
Cc1sc2ncnc(SCc3ccc(C(=O)O)cc3)c2c1C | inconclusive: 17.7 µM [activator, single point]
COc1cc(=O)[nH]c(SC(C)C(=O)Nc2ccc3ccccc3c2)n1 (stereo not given) | inconclusive: 22.4 µM [inhibitor, single point]
